The list shows a part of the results. Further columns of the screen follow, without active or inactive calls. Compounds called inactive in the main read-out are mostly missing here.
Assay: beta-lactam sensitization of Mtb H37Rv, H37Rv (AID 434955);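 further: growth measured after seven days incubation then overnight dye step; 0% = bacteria only wells and 100% = bacteria with antibiotic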
Settings: M. tuberculosis H37Rv growth with meropenem, percent inhibition; measured here: primary screen without meropenem; at 25 µM

SMILES | inhibition [%]
CCOc1ccc(C2=C(C=C(C#N)C#N)C(c3ccccc3)c3ccccc3O2)cc1 (centres undefined) | 11.9
COC(=O)CC1Oc2ccc(C)cc2NC1=O (centres undefined) | -7.83
CC(C)(C)C(=O)Nc1ccnn1C1CCN(C(=O)c2cccc(Cl)c2)CC1 | 5.61
C(=C\c1ccccc1)/CSc1nnc(-c2cccnc2)n1Cc1ccco1 | -0.86
COc1ccc(-c2cccc(NC(=O)COc3ccc(Cl)cc3)c2)nn1 | 5.59
Cc1csc(=O)n1CC(=O)OCC(=O)Nc1cc(Cl)ccc1[N+](=O)[O-] | -1.65
CC(C)Cc1ccc(CN2CCCC(NC(=O)c3cccc(-n4cnnc4)c3)C2)cc1 (centres undefined) | 40.3
Cc1ccc(S(=O)(=O)Nc2cccc(-n3cnnn3)c2)cc1 | 0.12
O=c1oc(-c2ccccc2)nc2sc3c(c12)CCC3 | 36.8
Cn1c(C(=O)NCCN2CCOCC2)cc2c(=O)n(C)c3ccccc3c21 | -0.81
COc1ccc(NC(=O)c2ccc3c(c2)C(=O)N(CC2CCCO2)C3=O)cc1O (centres undefined) | -20.6
O=C(CC(=O)c1ccccc1)Nc1ccc2c(c1)OCCO2 | 33.6
Cc1cc(C)cc(NS(=O)(=O)c2ccc3c(c2)C(C)(C)C(=O)N3C)c1 | -7.19
CNC(=O)c1c(NC(=O)c2ccco2)sc2c1CCC2 | 8.18
Cn1cccc1/C=C1\C(=O)NC(=O)N(Cc2ccccc2)C1=O | 3.31
COc1ccccc1N1CCN(S(=O)(=O)c2c(C)[nH]c(C)c2C(=O)N2CCCC2)CC1 | -5.69
CCC(=O)Nc1cccc(-c2ccc(N3CCN(C)CC3)nn2)c1 | 0.04
COC(=O)Nc1c(-c2ccccc2)nc2ccccn12 | 8.08
COc1cccc(NS(=O)(=O)NC(=O)c2c[nH]c3ccccc23)c1 | 0.41
COc1ccc(S(=O)(=O)NCc2csc(C)n2)cc1OC | 1.35
O=C1CCC(C(=O)N2CCCCO2)CN1Cc1ccc(Cl)cc1 (centres undefined) | -10
O=C(NC1CCS(=O)(=O)C1)c1ccc(S(=O)(=O)N2CCCC2)cc1 (centres undefined) | 2.55
COc1ccc(/C=C/c2cc(=O)c3cc(Cl)ccc3o2)cc1 | 74.9
COc1cc(C2=NOC(C(=O)NCc3ccc(F)cc3)C2)cc(OC)c1OC (centres undefined) | -4.03
Cc1ccc(C(C)C)c(OCc2ccc(C(=O)N/N=C/c3ccc(O)c(O)c3)cc2)c1 | -3.22
Cn1nc(-c2ccccc2F)c2cc(C(=O)N3CCN(C(=O)c4ccco4)CC3)sc21 | 28.1
CC(=O)c1cc2c(cc1NC(=O)CN1Cc3ccccc3C1=O)OCO2 | 0.23
CCn1c(SCC(=O)N2CC(C)OC(C)C2)nc2c([nH]c3ccccc32)c1=O (centres undefined) | 5.37
COc1ccc(S(=O)(=O)N2CCOCC2)cc1C(=O)Nc1ccc2c(c1)OCO2 | 5.15
